Test results: PubChem BioAssay AID360 (National Center for Advancing Translational Sciences (NCATS), 2006)
Out of some 48,000 compounds screened, about 550 (1.1%) were called active. Not shown: some 4% with an inconclusive outcome. Cut-off read from the data, not from the text of the source: active = potency below about 15 µM; inconclusive = mostly about 16 µM to 33 µM; inactive = weaker than that. This is one part of the list.

Each compound was assayed against Lysosomal acid glucosylceramidase (Homo sapiens) (UniProt P04062) (assay: Glucocerebrosidase). Conditions: purified enzyme, resorufin glucoside fluorescence (screen aimed at inhibitors), 20 min.
In short: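 Normal human glucocerebrosidase (0.2 nM final) was assayed with resorufin β-D-glucopyranoside (30 uM final) in 50mM citric acid/KH2PO4, 10mM sodium taurocholate, 0.01% tween-20, pH 5.9. Compounds were titrated; fluorescence (Ex 548, Em 600) read after 20 min at RT.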
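Note: the screen sought inhibitors.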
Potency is the fitted concentration of half-maximal effect.

UniProt P04062, sequence (P04062 whole entry, looked up): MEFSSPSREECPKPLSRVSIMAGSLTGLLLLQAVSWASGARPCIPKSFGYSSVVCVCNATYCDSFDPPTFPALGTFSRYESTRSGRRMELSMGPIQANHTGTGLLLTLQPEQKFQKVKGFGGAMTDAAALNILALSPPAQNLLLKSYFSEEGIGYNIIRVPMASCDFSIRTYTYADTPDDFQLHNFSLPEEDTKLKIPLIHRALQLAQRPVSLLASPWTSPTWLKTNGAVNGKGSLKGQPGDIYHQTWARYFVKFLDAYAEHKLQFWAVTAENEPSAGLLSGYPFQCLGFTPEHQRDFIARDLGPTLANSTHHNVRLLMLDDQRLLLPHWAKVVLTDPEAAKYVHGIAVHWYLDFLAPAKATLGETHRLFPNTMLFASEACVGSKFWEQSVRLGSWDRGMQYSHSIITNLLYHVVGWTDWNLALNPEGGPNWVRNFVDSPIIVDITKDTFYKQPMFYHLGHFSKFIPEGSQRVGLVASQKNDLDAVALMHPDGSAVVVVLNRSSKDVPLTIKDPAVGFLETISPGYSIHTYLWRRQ

Potency, inactive:
Cc1ccccc1-n1nc2c(c1NC(=O)c1c(-c3ccccc3Cl)noc1C)CS(=O)(=O)C2 > 76.9 µM
O=C(Nc1cnccn1)C1c2ccccc2Oc2ccccc21 > 76.9 µM
N#Cc1c(N)nc2c(c1-c1ccncc1)CCCC2 > 76.9 µM
Cc1nc(NC(=O)c2oc3ccccc3c2C)sc1C(=O)N(C)C > 76.9 µM
COc1ccc2cc(CN(CCc3ccccc3)Cc3nnnn3Cc3ccco3)c(=O)[nH]c2c1 > 76.9 µM
CCOC(=O)c1cc(CC)sc1NC(=O)Cc1ccsc1 > 76.9 µM
Cn1c(=O)[nH]c(=O)c2c1nc(NCCCn1ccnc1)n2Cc1ccc(F)cc1 > 76.9 µM
COc1ccc(-c2nnc(SCc3ncc(-c4ccccc4)o3)o2)cc1 > 76.9 µM
COc1ccccc1C(=O)Nc1c2c(nn1-c1cccc(C)c1C)CS(=O)(=O)C2 > 76.9 µM
Cc1cccc2[nH]c(-c3ccc(NC(=O)c4ccco4)cc3)nc12 > 76.9 µM
CCCC(c1nnnn1CCc1ccccc1)N1CCN(C(=O)c2ccco2)CC1 (centres undefined) > 76.9 µM
Cc1ccc2c(CN3CCCc4ccccc43)cc(=O)oc2c1C > 76.9 µM
O=C1c2cccnc2C(=O)N1Cc1ccc(F)cc1 > 76.9 µM
COc1ccc(CCN(C)CCN2C(=O)c3ccccc3C2=O)cc1OC > 76.9 µM
O=C(CN1C(=O)C2C3C=CC(C3)C2C1=O)Nc1ccc2c(c1)OCCO2 (centres undefined) > 76.9 µM
Cc1ccc2cc(CN(CC3CCCO3)S(=O)(=O)c3ccc4c(c3)OCCO4)c(=O)[nH]c2c1C (centres undefined) > 76.9 µM
O=C(CSCc1ccccc1)N1CCN(C(=O)c2ccco2)CC1 > 76.9 µM
CC(C)C(NC(=O)C1CCCCC1)C(=O)NCc1ccccn1 (centres undefined) > 76.9 µM
CCOC(=O)Cn1c(C(=O)OCC)cc2sccc21 > 76.9 µM
CC(C(=O)c1ccccc1)n1c(N2CCOCC2)nc2c1c(=O)n(C)c(=O)n2C (centres undefined) > 76.9 µM
CCN(CC)CCn1c2ccccc2c2nc(C)sc21 > 76.9 µM
Cc1nc2ccccc2c(=O)n1N > 76.9 µM
Cc1cc(Nc2cccc(C(F)(F)F)c2)n2nc(C)nc2n1 > 76.9 µM
c1ccc(CSc2nnc(NC3=NCCCCC3)s2)cc1 > 76.9 µM
CCCCc1c(O)nc(SCC(=O)Nc2ccc3c(c2)CCC3)[nH]c1=O > 76.9 µM
COC(=O)COc1ccc(-c2nn(C)c(=O)c3ccccc23)cc1 > 76.9 µM
Cc1cccc(NC(=O)Cn2nnc(-c3cccs3)n2)c1C > 76.9 µM
Nc1nonc1-c1noc(-c2ccc(Br)o2)n1 > 76.9 µM
c1cncc(-c2nn[nH]n2)c1 > 76.9 µM
CC(=O)c1n[nH]nc1Nc1nc(C)cc(C)n1 > 76.9 µM
CCCCP(=O)(c1ccccn1)c1ccccn1 > 76.9 µM
Cc1nn(C)cc1CN(C)C(=O)c1cc2nc(-c3ccco3)cc(C(F)(F)F)n2n1 > 76.9 µM
COc1ccc(OC)c(-c2oc3ccccc3c(=O)c2O)c1 > 76.9 µM
O=C(O)C1C2C=CC(C2)C1C(=O)NC1CCS(=O)(=O)C1 (centres undefined) > 76.9 µM
Cc1nc2ccc(S(=O)(=O)Nc3ccccc3C)cc2s1 > 76.9 µM
CCOC(=O)N1CCC(Nc2c(N3CCN(c4cccc(C(F)(F)F)c4)CC3)c(=O)c2=O)CC1 > 76.9 µM
CCC12CN3CC(CC)(CN(C1)C3c1ccccc1Cl)C2O (centres undefined) > 76.9 µM
Cc1cc(C)c2nc3s/c(=C/c4ccc5c(c4)n(C)c(=O)n5C)c(=O)n3c2c1 > 76.9 µM
Cc1cc(C)cc(OCc2nnc(SCC(=O)OC3CCCCC3)o2)c1 > 76.9 µM
COc1ccc(-c2noc(CCCOc3ccccc3)n2)cc1OC > 76.9 µM
Cc1cc2c(c(=O)o1)C(C13C=CC(CC1)C3)C(C#N)=C(N)O2 (centres undefined) > 76.9 µM
O=C(COC(=O)Cn1[nH]c(=O)c2ccccc2c1=O)Nc1ccc2c(c1)OCO2 > 76.9 µM
O=C(Nc1ccccc1C(=O)N1CCCCC1)c1cccc(S(=O)(=O)N2CCOCC2)c1 > 76.9 µM
O=C(Nc1ccc(F)cc1)N(Cc1nnc2n1CCCCC2)c1ccccc1 > 76.9 µM
O=C(Nc1nc(-c2ccncc2)cs1)c1ccco1 > 76.9 µM
O=CN1CC(=O)N(c2ccccc2)c2c([nH]c3ccccc23)C1 > 76.9 µM
Cc1ccccc1OCC(O)Cn1c(SC(C)C)nc2c1c(=O)[nH]c(=O)n2C (centres undefined) > 76.9 µM
CCOc1ccc(-n2cc(C(=O)N3CCCCCC3)c3cc(OC)c(OC)cc3c2=O)cc1 > 76.9 µM
Cc1cc(C)n(CC(=O)NCc2cc(-c3nn(C)c(=O)c4ccccc34)ccc2C)n1 > 76.9 µM
CC(=O)Nc1cccc(-c2nc3ccc(NC(C)=O)cc3[nH]2)c1 > 76.9 µM
Cc1cc(C(=O)Nc2c(F)cc(F)cc2Br)c(C)o1 > 76.9 µM
CC(C(=O)N1CCOCC1)N1c2cccc3cccc(c23)S1(=O)=O (centres undefined) > 76.9 µM
Cc1nc2scc(-c3ccccc3)c2c(=O)n1N > 76.9 µM
Cc1cnc(C(=O)Nc2nnc(C)s2)cn1 > 76.9 µM
C=CCn1c(=O)c(C#N)cc2c(=O)n3ccccc3nc21 > 76.9 µM
O=C(CSc1nnc(Cc2ccccc2)o1)N1CCCc2ccccc21 > 76.9 µM
Cc1ccccc1S(=O)(=O)Cc1ccc(C(=O)N2CCN(c3ccc(F)cc3)CC2)o1 > 76.9 µM
Cc1nc2nc(C)c(CCC(=O)NCCC3=CCCCC3)c(C)n2n1 > 76.9 µM
Nc1nsnc1C(=O)NCCO > 76.9 µM
Cc1nc(NCC2CCCO2)c2oc3ccccc3c2n1 (centres undefined) > 76.9 µM
COc1ccc(-c2cc(-c3cc(F)ccc3O)[nH]n2)cc1OC > 76.9 µM
O=C(CSc1nc2ccccc2c(=O)n1NC(=O)Cc1ccccc1)NCc1ccco1 > 76.9 µM
O=C(CCCn1c(=S)[nH]c2cc3c(cc2c1=O)OCO3)NC1CC1 > 76.9 µM
CCCCCCNC(=O)c1c(O)c2ccccc2[nH]c1=O > 76.9 µM
COC(=O)c1ccc2c(c1)S(=O)(=O)NC(=NCc1ccco1)S2 > 76.9 µM
Cc1cc(C)cc(-c2nnc(SCC(=O)N3CCN(C(=O)c4ccco4)CC3)o2)c1 > 76.9 µM
CCOC(=O)c1cc(NC(=O)Nc2ccc(OC)c(OC)c2)c(C)nc1C > 76.9 µM
CCOC(=O)N1CCN(C(=O)CSc2nnc(-c3c[nH]c4ccccc34)n2CCOC)CC1 > 76.9 µM
CCOc1ccc2nc(NC(=O)CSc3nc4c(c(=O)n(C)c(=O)n4C)n3C(C)C)sc2c1 > 76.9 µM
CCOc1ccc(-c2n[nH]c(C)c2Oc2ccccc2OC)c(O)c1 > 76.9 µM
O=C(Nc1ccc(N2CCOCC2)c(F)c1)c1ccncc1
O=C(CSc1nnc2scc(-c3ccc(F)cc3)n12)NCc1ccco1 > 76.9 µM
COc1ccc(Cl)cc1NS(=O)(=O)c1ccc(S(=O)(=O)N2CCCC2)cc1 > 76.9 µM
CCCc1nnc(NC(=O)c2cccc(OC)c2)s1 > 76.9 µM
COc1ccccc1N1CCN(C(=O)c2ccccc2Oc2ccccc2)CC1 > 76.9 µM
COc1cccc(C(=O)Nc2cccc(C(=O)N3CCOCC3)c2)c1 > 76.9 µM
CCN(CC(=O)N1CCOCC1)S(=O)(=O)c1ccc(C)cc1 > 76.9 µM
C=CCn1c(O)c(CN2CCN(Cc3ccccc3)CC2)c(C)c(C#N)c1=O > 76.9 µM
COc1cc(Br)cc2cc(C(=O)N3CCN(C(=O)c4ccco4)CC3)c(=O)oc12 > 76.9 µM
Cc1nc2c3c4c(sc3n3c(SCC(=O)NCc5ccco5)nnc3n2n1)COC(C)(C)C4 > 76.9 µM
COc1cccc(CSc2nnc(-c3ccc(F)cc3)o2)c1 > 76.9 µM
N#CCc1c(C#N)c(N)nc(N2CCN(S(=O)(=O)c3ccccc3)CC2)c1C#N > 76.9 µM
CN(c1ccccc1)S(=O)(=O)c1ccc(C(=O)Nc2nnc(-c3ccc(F)cc3)o2)cc1 > 76.9 µM
COC(=O)C1=C2SC(C)C(=O)N2C(N)=C(C#N)C1c1ccc(OC)c(OC)c1 (centres undefined) > 76.9 µM
Cc1cccc(OCCCC(=O)Nc2ccc(S(=O)(=O)Nc3onc(C)c3C)cc2)c1C > 76.9 µM
COc1ccc(-c2cc(C(=O)O)c(C)o2)cc1OC > 76.9 µM
COc1cccc(-c2nnc(Nc3nc4c(F)cccc4s3)o2)c1 > 76.9 µM
COc1cccc(-c2nnc(NC(=O)c3ccc(S(=O)(=O)N(CC(C)C)CC(C)C)cc3)o2)c1 > 76.9 µM
CCOc1ccccc1NC(=O)CCn1c(=O)oc2ccccc21 > 76.9 µM
